Experimental data taken from PubChem BioAssay AID720709 (National Center for Advancing Translational Sciences (NCATS), 2013).
About 520 (0.14%) of roughly 360,000 compounds were called active. The inconclusive results got no clear call from the source; some entries with a clear call stand among them for comparison. Calls come from the whole dose curve; as a rule, active = well fitted inhibition curve with a large enough effect; inconclusive = small, poorly fitted or top-dose-only effect; inactive = no such curve, though single readings can be large or run the other way. Where the call is inconclusive, the potency comes from a doubtful curve fit.

molecular target: Rap guanine nucleotide exchange factor 3 (Homo sapiens) (UniProt O95398); experiment: qHTS for Antagonist of cAMP-regulated guanine nucleotide exchange factor 3 (EPAC1): primary screen; details: EPAC1 GEF assay, Rap1b-BODIPY-GDP exchange fluorescence; activity change, negative = inhibition: at 115 µM (top of the series); note: nearly all actives have a fitted effect of over 50% in size;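 for activity change, negative = inhibition: plate controls were vehicle for no effect and positive control for full effect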
Potency is the fitted concentration of half-maximal effect; tags give direction and shape of the fitted curve.

UniProt O95398, sequence (O95398 whole entry, looked up): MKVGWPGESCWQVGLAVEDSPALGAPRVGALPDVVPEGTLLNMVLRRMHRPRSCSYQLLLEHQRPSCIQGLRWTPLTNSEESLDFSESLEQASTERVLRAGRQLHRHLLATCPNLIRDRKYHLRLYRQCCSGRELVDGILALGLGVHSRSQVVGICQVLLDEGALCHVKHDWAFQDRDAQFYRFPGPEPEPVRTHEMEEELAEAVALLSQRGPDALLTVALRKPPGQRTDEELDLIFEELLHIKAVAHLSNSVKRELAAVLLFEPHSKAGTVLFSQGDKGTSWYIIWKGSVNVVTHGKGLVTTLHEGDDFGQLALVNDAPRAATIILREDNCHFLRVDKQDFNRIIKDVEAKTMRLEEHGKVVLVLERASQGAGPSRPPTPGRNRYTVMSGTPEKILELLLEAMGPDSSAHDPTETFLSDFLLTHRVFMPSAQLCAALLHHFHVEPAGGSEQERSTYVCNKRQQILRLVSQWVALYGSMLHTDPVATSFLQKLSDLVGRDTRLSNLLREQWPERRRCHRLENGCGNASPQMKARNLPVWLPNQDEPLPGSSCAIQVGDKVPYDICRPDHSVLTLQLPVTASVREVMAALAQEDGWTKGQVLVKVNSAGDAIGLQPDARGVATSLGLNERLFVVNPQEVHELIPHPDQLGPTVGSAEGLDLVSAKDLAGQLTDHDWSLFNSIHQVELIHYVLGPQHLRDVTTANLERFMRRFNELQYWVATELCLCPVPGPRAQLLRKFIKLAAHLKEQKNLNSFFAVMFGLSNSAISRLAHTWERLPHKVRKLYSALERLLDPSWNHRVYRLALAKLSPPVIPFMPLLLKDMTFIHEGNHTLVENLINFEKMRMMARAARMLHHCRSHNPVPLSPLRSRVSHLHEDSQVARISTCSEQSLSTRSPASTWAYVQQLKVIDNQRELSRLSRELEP

Potency, inconclusive:
C[C@H](C[C@H](O)[C@H]1OC1(C)C)C1=C2C[C@H](O)C3[C@@]4(C)CCC(=O)C(C)(C)C4CC[C@]3(C)[C@@]2(C)CC1 (some centres undefined) 17.8 µM [inhibitor, full curve], Cc1cc(C)c2[nH]c(=O)c(C(c3nnnn3Cc3ccc4c(c3)OCO4)N3CCCCC3)cc2c1 (centres undefined) 89.1 µM [inhibitor, single point], COc1cc2nc(CN3CCN(S(=O)(=O)c4ccccc4C(F)(F)F)CC3)[nH]c(=O)c2cc1OC 100 µM [inhibitor, single point], CCCN(CCC)c1ccc(CC(=O)NC(C)Cc2ccccc2)cc1 (centres undefined) 44.7 µM [inhibitor, full curve, poor fit], C=CCn1c(-c2ccoc2)n[nH]c1=S 100 µM [inhibitor, partial curve, poor fit], CCCCCCCCSc1n[nH]c(N)n1 12.6 µM [inhibitor, partial curve], CCOc1ccc(-c2[nH]nc3c2C(c2ccc4c(c2)OCO4)C(C#N)=C(N)O3)cc1OC (centres undefined) 56.2 µM [inhibitor, partial curve], CC1=NN(c2ccc(Cl)cc2)C(=O)C1 100 µM [inhibitor, single point], c1cncc(-c2nc(NCCCN3CCOCC3)c3c4c(sc3n2)CCC4)c1 89.1 µM [inhibitor, single point], Cc1cc(Cl)ccc1OC(C)C(=O)OCC(=O)c1ccc[nH]1 (centres undefined) 31.6 µM [inhibitor, partial curve], Cc1ccc(NS(=O)(=O)c2cccc(C(=O)N3CCN(C(=O)c4ccco4)CC3)c2)cc1 100 µM [inhibitor, single point], O=C(COC(=O)c1ccc2c(c1)C(=O)N(Cc1ccncc1)C2=O)Nc1ccccc1[N+](=O)[O-] 11.2 µM [inhibitor, partial curve], COc1ccc(CC(C#N)(CO)c2nc3ccccc3[nH]2)cc1 (centres undefined) 2.82 µM [inhibitor, full curve, poor fit], CCOC(=O)[C@]12CCCC=C1N(Cc1cccc3ccccc13)C(=O)[C@H](CC(=O)NCc1cccs1)C2 56.2 µM [inhibitor, single point], CC(C)C[C@H](NC(=O)c1nc[nH]c1C(=O)NC1CCN(C(=O)OC(C)(C)C)CC1)C(=O)OC(C)(C)C 10 µM [inhibitor, full curve], CC(=O)Nc1cccc(-c2nc3ccc(NC(C)=O)cc3s2)c1 50.1 µM [inhibitor, partial curve], CS(=O)(=O)c1ccc(C(=O)Nc2nc(-c3ccco3)c(-c3ccco3)s2)cc1 56.2 µM [inhibitor, partial curve], O=C(NNC(=S)NCc1ccccc1)c1ccc2c(c1)OCO2 22.4 µM [inhibitor, partial curve], Cc1ccc(/C=C/C(=O)c2ccc(N3CCOCC3)cc2)s1 100 µM [inhibitor, partial curve, poor fit], S=C1NCN(C2CCCCC2)CN1CCc1ccccc1 22.4 µM [inhibitor, full curve, poor fit], Cc1cc(C)n2nc(C(=O)N/N=C/c3c4ccccc4cc4ccccc34)nc2n1 39.8 µM [inhibitor, single point], Cn1c(=O)c2cc(NC(=S)NCc3ccccc3F)ccc2n1Cc1cccc(C(F)(F)F)c1 22.4 µM [inhibitor, full curve, poor fit], COc1ccc(C2CC(c3ccccc3)=NN2c2ccc(C(N)=O)cc2)cc1 (centres undefined) 50.1 µM [inhibitor, partial curve, poor fit], CCc1nnc(NC(=O)c2sc3nc4c(cc3c2N)CCCCC4)s1 79.4 µM [inhibitor, single point], COCC(=O)Nc1ccc(N2CCOCC2)c(S(=O)(=O)Nc2ccccc2OC)c1 100 µM [inhibitor, partial curve, poor fit], CN(CC(=O)Nc1cccc(S(=O)(=O)N2CCCC2)c1)CC(=O)Nc1ccc(F)c(F)c1F 63.1 µM [inhibitor, partial curve], CC(NC(=O)COC(=O)C1CC2CCCC(C1)C2=O)c1ccccc1 (centres undefined) 89.1 µM [inhibitor, single point], COc1ccc2oc(C(=O)OCC(=O)NC3CCCC3)c(C)c2c1 25.1 µM [inhibitor, full curve, poor fit], CCCc1[nH]nc2c1C(c1ccc(Br)s1)C(C#N)=C(N)O2 (centres undefined) 70.8 µM [inhibitor, single point], CCOc1ccccc1CN1CCN(C2CCN(c3ccccc3F)CC2)CC1CCO (centres undefined) 44.7 µM [inhibitor, partial curve, poor fit], CCN(C(=O)CSc1nc2ccccc2c(=O)n1CCOC)C1CCS(=O)(=O)C1 (centres undefined) 100 µM [inhibitor, single point], Cc1ccccc1-n1c(SCC(=O)Nc2cccc3ccccc23)nc(O)cc1=O 31.6 µM [inhibitor, single point], Cc1ccc(S(=O)(=O)N2[C@@H](c3ccc(F)cc3)C(C(=O)O)=CC[C@H]2c2ccc(C(C)C)cc2)cc1 79.4 µM [inhibitor, partial curve], CCc1ccc(NC(=O)C2(c3ccccc3)CC2(Cl)Cl)cc1 (centres undefined) 22.4 µM [inhibitor, full curve, poor fit], O=C(N/N=C/c1ccoc1)c1cc(O)cc(O)c1 79.4 µM [inhibitor, single point], CCOC(=O)c1sc2ccccc2c1OC(=O)c1ccccc1OC 17.8 µM [inhibitor, full curve, poor fit], O=C(COc1ccc2c(-c3ccccc3)cc(=O)oc2c1)Nc1ccc(CCO)cc1 70.8 µM [inhibitor, partial curve], Nc1nc2c(ncn2[C@@H]2O[C@H](CNCc3cnc(N4CCOCC4)s3)[C@@H](O)[C@H]2O)c(=O)[nH]1 100 µM [inhibitor, partial curve, poor fit], COc1c(Br)cc(/C=N/n2c(-c3ccccc3)n[nH]c2=S)c(O)c1Br 100 µM [inhibitor, partial curve], CC(C)[C@@H](CO)NC(=O)[C@H]1O[C@@H](n2cnc3c(N)ncnc32)[C@H](O)[C@@H]1O 31.6 µM [inhibitor, partial curve], CCc1nc2ccc(C(=O)N3CCN(C(=O)c4ccco4)CC3)cn2c1N(C)C(=O)COc1ccccc1 89.1 µM [inhibitor, single point], C=C1c2cccc(O)c2C(O)=C2C(=O)[C@]3(O)C(O)=C(C(N)=O)C(=O)[C@@H](N(C)C)[C@@H]3[C@@H](O)[C@H]12 15.8 µM [inhibitor, partial curve], Clc1ccccc1CO/N=C1\CCCc2nonc21 44.7 µM [inhibitor, single point], CC(=O)Nc1ccccc1OC(C)C(=O)NC(C)c1ccc(F)cc1 (centres undefined) 100 µM [inhibitor, single point], CC(C)C[C@@H](C(=O)NCc1ccco1)N1C(=O)N2CCc3c([nH]c4ccccc34)[C@@]2(C)C1=O 56.2 µM [inhibitor, partial curve]

Potency, active:
CC(=Cc1ccccc1)C=C1SC(=S)N(CCCC(=O)Nc2ccc(C(=O)O)c(O)c2)C1=O 50.1 µM, O=[N+]([O-])c1ccc(Sc2cccc[n+]2[O-])c2nonc12 35.5 µM

Activity change, negative = inhibition, inconclusive:
Cn1cccc([N+](=O)[O-])c1=O -9.94% [inhibitor], O=C(CSc1nc2ccccc2c(=O)[nH]1)Nc1ccc(N2CCOCC2)c(Cl)c1 -16.8% [inhibitor]

Activity change, negative = inhibition, inactive:
O=C(N/N=C/c1ccc([N+](=O)[O-])o1)c1cc2c(ccc3ccccc32)o1 -1.44%, O=S(=O)(c1ccccc1)N1N=C(c2cccs2)CC1c1ccc(F)cc1 (centres undefined) -8.26%, CCOC(=O)c1oc2cc(O)cc(C)c2c(=O)c1-c1cscn1 -0.382%, OCCNc1c2ccccc2nc2c(F)c(F)c(F)c(F)c12 -20.1%, C[C@@H]1CCCCO[C@@H](CN(C)CC2CCCCC2)[C@@H](C)CN([C@H](C)CO)C(=O)c2cc(NS(=O)(=O)c3ccc(Cl)cc3)ccc2O1 -13.2%, CCCCNc1cc(C)nc(NCc2ccccc2)n1 -0.614%, CCNc1nc(NCC)nc(N(C#N)CCOc2ccccc2)n1 -5.25%, CCCNC(=O)C1(C)CCCN(Cc2csc3ccccc23)C1 (centres undefined) -7.77%, O=C(O)C(Cc1c[nH]c2ccccc12)NS(=O)(=O)c1cccc(Cl)c1Cl (centres undefined) -14.3%, CCOc1ccc(NC(=O)/C(C#N)=C\c2ccc(N3CCCC3)c(C)c2)cc1 -0.443%, Clc1ccccc1C=NNc1ccccn1 -0.569%, CC(Cc1ccc(Cl)cc1)N1CCC(n2nccc2NC(=O)C2CCCC2)CC1 (centres undefined) 23.8%, O=C(O)c1cccc(NC2=C(n3nnc4ccccc43)C(=O)c3ccccc3C2=O)c1 -3.8%, O=C(CN1CCN(Cc2cccc(Cl)c2)C1=O)NCc1ccccn1 15.7%, CCC(C)(C)c1ccc(OCCCC[n+]2cccc(C)c2)c(C(C)(C)CC)c1 2.26%
